# Assay results published in PubChem BioAssay AID686978 (National Center for Advancing Translational Sciences (NCATS), 2013).
# Where “and” joins values, the source holds several entries; their conditions need not be identical. Equal entries are not always repeated. Hit rate of the full screen: of about 420,000 compounds, about 64,000 (15%) were called active. Inconclusive results, whose numbers are uncertain, are shown with a selection of clear calls. The call rests on the fitted dose curve; in most records, active means well fitted inhibition curve with a large enough effect; inconclusive means small, poorly fitted or top-dose-only effect; inactive means flat fitted curve, though single readings scatter. Potencies of inconclusive entries are doubtful fits and often do not repeat.
# Experiment: qHTS for Inhibitors of human tyrosyl-DNA phosphodiesterase 1 (TDP1): qHTS in cells in absence of CPT; further: nearly all actives have a fitted effect of over 55% in size
# Conditions: DT40 Tdp1-/- hTDP1 cells, no CPT, ATP luminescence, 48 h; activity change, negative = growth inhibition: at 46.2 µM (top of the series) unless noted
# In short: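 Readout: luminescence from CellTiter-Glo after 30 min in the dark at RT. Cells: DT40 Tdp1-/- with stable hTDP1, 400/well. Exposure: compounds alone, ≥48 hr, 37 °C.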
# On the % scale 0 is the no-effect control and ±100 the full control effect; potency means the concentration at half of the fitted maximal effect; tags describe the fitted curve by direction and shape.
SMILES,Potency,"activity change, negative = growth inhibition"
CCOC(=O)c1cnc2c(C)c(Cl)ccc2c1NCCCN1CCOCC1,"inconclusive: 20.6 µM [inhibitor, single point]",–
Cc1cc(/C=C(\C#N)C(=O)N2CCCCC2)cc(C)c1O,active: 25.9 µM,–
COc1ccc(-n2c(=O)c3c(c4cc(OC)ccc4n3C)n(CC(=O)N3CCCC3)c2=O)cc1,"inconclusive: 29.1 µM [inhibitor, single point]",–
O=C(CSc1ccc(-c2nc3ccccc3[nH]2)cn1)N1CCN(C(=O)c2ccco2)CC1,"inconclusive: 25.9 µM [inhibitor, partial curve]",–
COc1ccc(N2CCN(CCCNC(=O)c3ccc4nc(Cc5ccccc5)oc4c3)CC2)cc1,active: 6.51 µM,–
CC(C)c1cccc(C(C)C)c1NC(=O)CN1C(=O)NC2(CCCCCCC2)C1=O,inactive,–
CCOc1ccc(CNC(=O)C2CCCN(c3nn4cc(-c5ccc(F)cc5)nc4s3)C2)cc1 (stereo not given),active: 23.1 µM,–
Cc1cccc(OCc2nc(C#N)c(N3CCCC3)o2)c1,inactive,–
O=C(CSC1=NS(=O)(=O)c2cc(F)ccc2N1)NCc1ccccc1,inactive,–
CCC(C)N(C(=O)CCC(=O)Nc1cc(C)on1)C(C(=O)NC(C)(C)C)c1ccccc1Cl (stereo not given),"inconclusive: 29.1 µM [inhibitor, single point]",–
Cc1ccc(NC(=O)C(C)Sc2nc3c(c(=O)[nH]2)CCCC3)cc1Cl (stereo not given),"inconclusive: 29.1 µM [inhibitor, single point]",–
Cc1ccc(S(=O)(=O)N2CCC[C@H]2C(=O)OCC(=O)N2c3ccccc3NC(=O)C2(C)C)cc1,"inconclusive: 29.1 µM [inhibitor, single point]",–
O=C(CSc1nnc(COc2ccccc2)o1)N1CCOCC1,inactive,–
Cc1cc2oc(=O)cc(CN(C)Cc3ccccc3)c2cc1C,"inconclusive: 18.4 µM [inhibitor, single point]",–
CCc1ccc(NC(=O)CCCc2nnc3n(CCCOC)c(=O)c4sccc4n23)cc1,"inconclusive: 29.1 µM [inhibitor, single point]",–
COc1cc(NC(=O)CNc2ccc(Cl)c(S(=O)(=O)N3CCOCC3)c2)cc(OC)c1,"inconclusive: 29.1 µM [inhibitor, single point]",–
O=c1c2cc(N3CCOCC3)ccc2[nH]c(=S)n1CC1CCCO1 (stereo not given),"inconclusive: 18.4 µM [inhibitor, single point]",–
O=C(/C=C/c1ccc([N+](=O)[O-])cc1)NCCSc1ccccc1,"inconclusive: 35.5 µM [inhibitor, single point]",–
CCN1C(=O)[C@H]2[C@H]3CN=C(SCc4ccc(C#N)cc4)N3[C@@](CC)(C(=O)OC)[C@H]2C1=O,inactive,–
C=CCNc1nc(-c2sc(NC(=O)CC)nc2C)cs1,"inconclusive: 29.1 µM [inhibitor, single point]",–
CCCCCC(C)NC(=O)c1cc(S(=O)(=O)N2CCCCC2)ccc1N1CCOCC1 (stereo not given),"inconclusive: 29.1 µM [inhibitor, partial curve, poor fit]",–
CC(C)CN1CCC(=O)N([C@H](CO)c2ccccc2)CC1,inactive,–
CC(C)(C)NC(=O)C(OC(=O)c1ccco1)c1ccc(Cl)cc1 (stereo not given),inactive,–
O=C(CSc1nc2nn(-c3ccccc3)c(=O)c-2c2n1CCCCC2)Nc1cccc(F)c1,"inconclusive: 20.6 µM [inhibitor, single point]",–

SMILES,Potency,"activity change, negative = growth inhibition"
Cn1c(=O)cc(SCC(=O)NCc2ccco2)c2ccccc21,"inconclusive: 18.4 µM [inhibitor, single point]",–
CCCCN(C(=O)CSc1ncn[nH]1)c1c(N)n(Cc2ccccc2)c(=O)[nH]c1=O,inactive,–
COc1cccc(C(C(=O)NCc2ccccc2)N2CCN(c3ccccc3F)CC2)c1OC (stereo not given),active: 16.4 µM,–
COc1ccccc1NC(=O)c1ccc(NC(=O)C2COc3ccccc3O2)cc1 (stereo not given),"inconclusive: 20.6 µM [inhibitor, single point]",–
Cn1c(-c2ccc3c(c2)OCO3)cnc1NC(=O)CCC(=O)NCCc1ccccc1,inactive,–
COCCC1CCCCN1C(=O)c1cccc(OC2CCN(S(C)(=O)=O)CC2)c1 (stereo not given),inactive,–
Cc1nc(Nc2ccccc2)sc1-c1ccccc1,"inconclusive: 29.1 µM [inhibitor, single point]",–
O=C(COC(=O)c1ccco1)NCC1CCCCC1,"inconclusive: 0.0065 µM [inhibitor, full curve, poor fit]",–
COc1ccc2[nH]cc(CCNc3cc(-c4ccccc4OC)ncn3)c2c1,"inconclusive: 29.1 µM [inhibitor, single point]",–
COc1cc([N+](=O)[O-])cc2sc(NC(=O)C(C)(C)C)nc12,"inconclusive: 20.6 µM [inhibitor, partial curve]",–
Cc1cc([N+](=O)[O-])nn1CCC(=O)NC1CCCCCC1,inactive,–
O=C(COc1ccccc1Cl)N(Cc1cccc(F)c1)C1CCS(=O)(=O)C1 (stereo not given),"inconclusive: 16.4 µM [inhibitor, single point]",–
OCc1nc2ccccc2n1Cc1ccc(Cl)cc1,"inconclusive: 10.3 µM [inhibitor, partial curve]",–
O=C(Nc1nnc(-c2ccc(Cl)s2)o1)C1CC1,–,inconclusive: -34.5% [inhibitor]
CCn1cc(Cl)c(C(=O)Nc2c(C)nn(Cc3c(F)c(F)c(F)c(F)c3F)c2C)n1,"inconclusive: 23.1 µM [inhibitor, single point]",–
Clc1cccc(-c2nc3ccc(Cl)cn3c2Cc2ccccc2)c1,active: 16.4 µM,–
CCOc1ccc(/C=C/c2nc(C#N)c(NCCCN(C)C)o2)cc1,"inconclusive: 23.1 µM [inhibitor, single point] and inconclusive: 29.1 µM [inhibitor, single point]",–
CC(C)(C)n1nnnc1C(c1ccccc1)N1CCN(c2ncccc2C(F)(F)F)CC1 (stereo not given),active: 25.9 µM,–
CCc1ccc2oc(-c3ccc(NC(=O)c4cccc(Cl)c4Cl)cc3)nc2c1,"inconclusive: 5.8 µM [inhibitor, partial curve]",–
Cn1c(=O)c2cc(NC(=O)Nc3ccccc3)ccc2n1Cc1ccccc1,"inconclusive: 18.4 µM [inhibitor, single point]",–
COC(=O)N/N=C/c1cn(Cc2ccccc2Cl)c2ccccc12,active: 20.6 µM,–
O=C(c1ccc(-c2ccccc2)cc1)N1CCC2CC1c1cc(-c3ccc4c(c3)OCO4)ccc12 (stereo not given),"inconclusive: 18.4 µM [inhibitor, single point]",–
O=C1c2ccccc2CCCC12N=NCC2c1cccc2ccccc12 (stereo not given),"inconclusive: 16.4 µM [inhibitor, partial curve]",–
COC(=O)c1ccccc1NC(=O)Cn1c(=O)n(CCCC(=O)NCc2ccccc2Cl)c(=O)c2ccccc21,"inconclusive: 7.31 µM [inhibitor, partial curve]",–

SMILES,Potency,"activity change, negative = growth inhibition"
O=C(NCC1CCCO1)c1cn(Cc2ccccc2Cl)nc1-c1ccccc1 (stereo not given),–,inconclusive: -32.8% [inhibitor]
CC(C)(C)NC(=O)CN(CCN1CCOCC1)C(=O)CNS(=O)(=O)c1ccc(Cl)cc1,inactive,–
Cc1nc(C(=O)O)cc([N+](=O)[O-])c1C,"inconclusive: 32.6 µM [inhibitor, single point]",–
Cc1ccc(NC(=O)c2c(C)nn(-c3ccccc3)c2-n2cccc2)c(Cl)c1,inactive,–
CC(C)(C)Cc1c(-c2ccc(Br)cc2)nc2ccc(Cl)cn12,"inconclusive: 16.4 µM [inhibitor, partial curve, poor fit]",–
Cc1ccccc1OCC(=O)NNC(=O)c1cc(S(=O)(=O)N2CCOCC2)ccc1N1CCCC1,inactive,–
CC1=C(N2CCCCC2)CCC1=O,inactive,–
CC1CCN(CC(O)CN2c3ccccc3Sc3ccccc32)CC1 (stereo not given),active: 18.4 µM,–
CCOC(=O)c1c(NC(=O)COc2ccc(C(C)(C)C)cc2)sc2c1CCCC2,"inconclusive: 29.1 µM [inhibitor, single point]",–
O=C(NC1CCOc2ccccc21)c1ccc(Cl)nc1 (stereo not given),inactive,–
O=C(Nc1ccccc1)N1CCN(c2nc(-c3ccccc3)ns2)CC1,active: 16.4 µM,–
Cc1ccc(Cc2nc3ccccc3nc2SCC(=O)NCc2ccccc2Cl)cc1,"inconclusive: 18.4 µM [inhibitor, partial curve, poor fit]",–
O=C(O)CC(Cc1ccc(Cl)cc1)C(=O)Nc1ccccc1 (stereo not given),inactive,–
CN(C(=O)c1cccc(NC(=O)Cc2cccc(NC(=O)C3CCCN(C(=O)C4CCC4)C3)c2)c1)C1CCC1 (stereo not given),active: 23.1 µM,–
O=[N+]([O-])c1ccccc1/C=C/C=N/Nc1nc(N2CCCCC2)nc(N2CCCCC2)n1,"inconclusive: 1.84 µM [inhibitor, partial curve]",–
Cc1ccc(-c2nnn(CC(=O)N(c3ccccc3)C(C(=O)NC3CCCC3)c3ccco3)n2)o1 (stereo not given),"inconclusive: 20.6 µM [inhibitor, single point]",–
Cc1ccc(CN2C(=O)C(F)(F)Oc3ccccc32)cc1,inactive,–
CCCCOc1ccc(N(CC(=O)NCc2ccco2)C(=O)CCC(=O)Nc2nccs2)cc1,"inconclusive: 29.1 µM [inhibitor, single point]",–
COc1ccc(-c2ccc(N(C)C)cc2)cc1[C@H]1[C@@H]2C=CCC[C@@]2(C)C(=O)N1Cc1ccccc1,active: 20.6 µM,–
Cc1cc(N(C)C)c(C#N)c(=O)[nH]1,inactive,–
Cc1ccc(N2C(=O)CS(=O)(=O)C23C(=O)N(Cc2ccc(Cl)cc2)c2ccccc23)cc1C (stereo not given),"inconclusive: 23.1 µM [inhibitor, partial curve]",–
Nc1nc(N)c(N=Nc2ccc(S(N)(=O)=O)cc2)c(=O)[nH]1,inactive,–
